The values below come from PubChem BioAssay AID1745853 (National Center for Advancing Translational Sciences (NCATS), 2022).

This is one part of the list. Shown are side measurements of this screen, not its main read-out; they come without a call.

Holding throughout (assay): Primary Screen for Target Class Profiling of Small Molecule Inhibitors of Methyltransferases
Experiment [1] has as its target Glycine N-methyltransferase (Homo sapiens) (UniProt Q14749). The conditions noted are these: purified enzyme, MTase-Glo SAH luminescence; measured here: GNMT inhibition; at 40 µM; stronger effect = lower value. The gist of the method:
(§1)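 Each enzyme was reacted with SAM and its substrate, with compounds tested once at 40 uM; SAH formed was read by MTase-Glo luminescence.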

The target in experiment [2] is Guanidinoacetate N-methyltransferase (Homo sapiens) (UniProt Q14353). Conditions: purified enzyme, MTase-Glo SAH luminescence; measured here: GAMT inhibition; at 40 µM; stronger effect = lower value. A digest of the protocol:
as §1

In experiment [3] the target is Histamine N-methyltransferase (Homo sapiens) (UniProt P50135). The conditions noted are these: purified enzyme, MTase-Glo SAH luminescence; measured here: HNMT inhibition; at 40 µM; stronger effect = lower value. The gist of the method:
as §1

Experiment [4] addresses Nicotinamide N-methyltransferase (Homo sapiens) (UniProt P40261). The conditions noted are these: purified enzyme, MTase-Glo SAH luminescence; measured here: NNMT inhibition; at 40 µM; stronger effect = lower value. The gist of the method:
as §1

The target of experiment [5] is Phenylethanolamine N-methyltransferase (Homo sapiens) (UniProt P11086). Conditions: purified enzyme, MTase-Glo SAH luminescence; measured here: PNMT inhibition; at 40 µM; stronger effect = lower value. The gist of the method: as §1
% is set by controls: 0 for no effect and ±100 for the full control effect.

For the compound `Cn1c(=O)c2ccc(C(=O)NC3CCCC3)cc2n2c(=O)n(CC(=O)c3ccc(Cl)cc3)nc12`, the activity change, negative = inhibition stood at 3.85% in experiment [1]; 0% in experiment [2]; 3.82% in experiment [3]; 4.11% in experiment [4]; 1.86% in experiment [5].

With `CCCn1c(=O)c2ccc(Cl)cc2n2c(SCC(=O)Nc3ccc(OC)cc3)nnc12`, the activity change, negative = inhibition in experiment [1] worked out at 1.67%; in experiment [2] it was 4.03%; in experiment [3], 3.68%; in experiment [4], 3.49%; in experiment [5], 0.285%.

Regarding `CCCn1c(=O)c2ccc(C(=O)NC(C)CC)cc2n2c(=O)n(Cc3ccccc3)nc12` (stereo not given), the activity change, negative = inhibition came to 3.97% in experiment [1]; 0% in experiment [2]; 6.46% in experiment [3]; 3.72% in experiment [4]; 4.11% in experiment [5].

As for `Cc1cc(C)cc(NC(=O)CSc2nnc3n(CC(C)C)c(=O)c4ccc(C(=O)NC(C)C)cc4n23)c1`, the activity change, negative = inhibition in experiment [1] was 3.22%; in experiment [2], 0.15%; in experiment [3], 9.71%; in experiment [4], -4.67%; in experiment [5], 5.89%.

Take `Cc1cnc(CC2CCCN(Cc3ccc(F)cc3F)C2)n1Cc1ccccc1` (stereo not given): the activity change, negative = inhibition was -12.5% in experiment [1]; -12.7% in experiment [2]; -27.9% in experiment [3]; -20.3% in experiment [4]; -2.78% in experiment [5].

`COc1cc([C@@H]2Nc3c(Cl)cccc3[C@@H]3C=CC[C@@H]32)cc(Br)c1OC`: the activity change, negative = inhibition is -12.1% in experiment [1]; -2.31% in experiment [2]; -13.7% in experiment [3]; -19.6% in experiment [4]; -19% in experiment [5].

Regarding `C/C(=C/CO)CC[C@H]1[C@]2(C)C[C@H](O)CC(C)(C)[C@H]2CC[C@]1(C)O`, the activity change, negative = inhibition in experiment [1] was 0.754%; in experiment [2], 5.97%; in experiment [3], 10.2%; in experiment [4], -6.67%; in experiment [5] it was 2.9%.

As to `Cc1ccc(CN2C(=O)c3ccccc3CC2(C)C(=O)NCc2ccccc2C)cc1` (stereo not given), the activity change, negative = inhibition in experiment [1] was 4.97%; in experiment [2], 0%; in experiment [3], -0.368%; in experiment [4], -4.22%; in experiment [5] it was 2.9%.

Regarding `COC(=O)C1=CO[C@@H](O[C@@H]2O[C@H](CO)[C@@H](O)[C@H](O)[C@H]2O)[C@@H]2[C@@H](C)[C@@H](O)C(O)[C@H]12` (stereo not given in full), the activity change, negative = inhibition was 4.99% in experiment [1]; 7.53% in experiment [2]; 7.21% in experiment [3]; -6.9% in experiment [4]; -0.859% in experiment [5].

Consider `CN(CCc1ccccn1)C(=O)[C@@]12CCCC[C@H]1N(C)C(=O)CC2`, for which the activity change, negative = inhibition was -1.49% in experiment [1]; -2.69% in experiment [2]; 0.604% in experiment [3]; -0.658% in experiment [4]; -0.569% in experiment [5].

For the compound `CC(=O)N1CCC(N2CCC[C@H]2c2nc(-c3ccc(-c4ccncc4)nc3)no2)CC1`, the activity change, negative = inhibition in experiment [1] is -15.4%; in experiment [2], -14.4%; in experiment [3], -19.4%; in experiment [4] it was -20.9%; in experiment [5], -3.35%.

With `CC1CCN(c2ncncc2-c2nc(-c3ccccc3)no2)CC1`, the activity change, negative = inhibition was -30.2% in experiment [1]; -12.3% in experiment [2]; -30.2% in experiment [3]; -21.3% in experiment [4]; -5.33% in experiment [5].

Regarding `CC1(C(=O)O)CCCC2(C)C3CCC4CC3(CCC12)CC4=O` (stereo not given), the activity change, negative = inhibition in experiment [1] was 0.028%; in experiment [2] it was 2.27%; in experiment [3], 7.67%; in experiment [4] it was -11.9%; in experiment [5], -1.83%.

For `CC(=O)O[C@H]1CC(C)(C)CC2[C@]13CO[C@@]21CCC2[C@@]4(C)CC[C@H](O[C@@H]5OC[C@H](O[C@@H]6O[C@H](CO)[C@@H](O)[C@H](O)[C@H]6O[C@@H]6OC[C@@H](O[C@@H]7O[C@H](CO)[C@@H](O)[C@H](O)[C@H]7O)[C@H](O)[C@H]6O)[C@H](O)[C@H]5O[C@@H]5O[C@H](CO)[C@@H](O)[C@H](O)[C@H]5O)[C@@](C)(CO)C4CC[C@@]2(C)[C@]1(C)C[C@H]3O` (stereo not given in full), the activity change, negative = inhibition is 4.48% in experiment [1]; 4.8% in experiment [2]; 14.7% in experiment [3]; -6.52% in experiment [4]; 10.7% in experiment [5].

Regarding `CC(C)Cn1c(=O)c2ccccc2n2c(SCc3ccccc3Cl)nnc12`, the activity change, negative = inhibition in experiment [1] was -4.68%; in experiment [2] it was 1.38%; in experiment [3] it was 11%; in experiment [4], -17.4%; in experiment [5] it was 6.3%.

`O=C(Cn1c(=O)oc2cc(S(=O)(=O)N3CCCC3)ccc21)NCCc1ccccc1`: the activity change, negative = inhibition in experiment [1] was -4.54%; in experiment [2], 1.03%; in experiment [3] it was -7.36%; in experiment [4], 4.99%; in experiment [5], -15.3%.

In the case of `O=C(CCCc1nnc2n3nc(-c4ccccc4)nc3c3ccccc3n12)N1CCN(c2ccccn2)CC1`, the activity change, negative = inhibition in experiment [1] was -11.3%; in experiment [2] it was 0.125%; in experiment [3], -10.2%; in experiment [4], -1.84%; in experiment [5], -12%.

For the compound `CCOc1ccc(N2C(=O)c3cc(-c4cccs4)nn3CC2(C)C(=O)NC2CCCCC2)cc1` (stereo not given), the activity change, negative = inhibition was -0.75% in experiment [1]; 3.21% in experiment [2]; 0.545% in experiment [3]; 2.54% in experiment [4]; 0.221% in experiment [5].

As for `COc1cc(OC)cc(N2C(=O)c3ccc(-c4ccco4)n3CC2(C)C(=O)NC2CCCC2)c1` (stereo not given), the activity change, negative = inhibition in experiment [1] was determined as 0.409%; in experiment [2] it was 0.258%; in experiment [3], 7.42%; in experiment [4], 9.19%; in experiment [5], 1.25%.

For the compound `COC(=O)C1=CN(CC(=O)NCCCc2ccccc2)S(=O)(=O)N=C1C`, the activity change, negative = inhibition in experiment [1] is -4.94%; in experiment [2] it was -3.98%; in experiment [3] it was -2.69%; in experiment [4], -5.8%; in experiment [5], -15.9%.

`Cc1ccc2c(C(=O)NCc3ccc(C(F)(F)F)cc3)cc(NC(=O)C(C)C)cc2n1`: the activity change, negative = inhibition was -2.81% in experiment [1]; -0.007% in experiment [2]; -1.14% in experiment [3]; -10.8% in experiment [4]; 13.2% in experiment [5].

Turning to `N#C[C@@H]1C[C@H](F)CN1C(=O)CNC1[C@H]2CN(C(=O)c3ccc(F)cc3)C[C@@H]12` (stereo not given in full), the activity change, negative = inhibition in experiment [1] is 4.22%; in experiment [2] it was 4.43%; in experiment [3] it was 1.69%; in experiment [4], -8.33%; in experiment [5] it was -1.79%.

Turning to `Cc1ccccc1CN1C(=O)c2ccc(-c3ccco3)n2CC1(C)C(=O)NC1CCC(C)CC1` (stereo not given), the activity change, negative = inhibition in experiment [1] is -0.966%; in experiment [2] it was 0%; in experiment [3], 4.05%; in experiment [4], -4.67%; in experiment [5], -0.046%.

As for `CC(C)C[C@@H](N)C(=O)N[C@H]1C(=O)N[C@@H](CC(N)=O)C(=O)N[C@H]2C(=O)N[C@H]3C(=O)N[C@H](C(=O)N[C@H](C(=O)O)c4cc(O)cc(O)c4-c4cc3ccc4O)[C@H](O)c3ccc(c(Cl)c3)Oc3cc2cc(c3O[C@@H]2O[C@H](CO)[C@@H](O)[C@H](O)[C@H]2O[C@H]2C[C@](C)(N)[C@H](O)[C@H](C)O2)Oc2ccc(cc2Cl)[C@H]1O`, the activity change, negative = inhibition in experiment [1] is 2.14%; in experiment [2], -1.76%; in experiment [3], 10.2%; in experiment [4], -6.97%; in experiment [5], 4.41%.

On to `Cn1cc(CNC(=O)c2ccc(S(=O)(=O)N[C@@H]3CCNC3)cc2)cn1`, for which the activity change, negative = inhibition in experiment [1] was -2.44%; in experiment [2] it was -9.54%; in experiment [3] it was -2.47%; in experiment [4], -7.65%; in experiment [5], 0.711%.

Consider `CC1=C(C(=O)Nc2ccccc2)C(c2cc(C)ccc2C)N2C(CC(=O)N3CCCC3)=CSC2=N1` (stereo not given), for which the activity change, negative = inhibition in experiment [1] was -11.9%; in experiment [2], -14.4%; in experiment [3] it was -11.3%; in experiment [4], -13.5%; in experiment [5], -11.8%.

In the case of `CS(=O)(=O)N1CCC(C2CCN(Cc3ccc4c(c3)CCO4)C2)CC1` (stereo not given), the activity change, negative = inhibition in experiment [1] was -6.95%; in experiment [2], -3.89%; in experiment [3], -5.12%; in experiment [4], -14.3%; in experiment [5], -24.3%.
